# Data published in PubChem BioAssay AID504845 (National Center for Advancing Translational Sciences (NCATS), 2011).
# Where “and” joins values, the source holds several entries; their conditions need not be identical. Equal entries are not always repeated. The campaign covered roughly 390,000 compounds. About 150 (0.038%) were called active. The shares of active, inactive and inconclusive entries below differ from those in the screen. The call rests on the fitted dose curve; in most records, active means well fitted inhibition curve with a large enough effect; inconclusive means small, poorly fitted or top-dose-only effect; inactive means no such curve, though single readings can be large or run the other way. Potencies of inconclusive entries are doubtful fits and often do not repeat.
# Molecular target: Regulator of G-protein signaling 4 (Homo sapiens) (UniProt P49798)
# Sequence of UniProt P49798 (P49798 whole entry, looked up): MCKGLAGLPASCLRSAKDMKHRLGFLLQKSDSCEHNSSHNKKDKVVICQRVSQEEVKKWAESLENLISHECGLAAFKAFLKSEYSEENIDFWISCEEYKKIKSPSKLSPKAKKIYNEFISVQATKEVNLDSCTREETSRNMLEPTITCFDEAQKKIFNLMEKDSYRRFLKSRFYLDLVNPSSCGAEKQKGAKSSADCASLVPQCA
# Test: Inhibitors of Regulator of G Protein Signaling (RGS) 4: qHTS; further: nearly all actives have a fitted effect of over 75% in size
# Settings: Transcreener GDP fluorescence polarization, RGS4-accelerated GTP hydrolysis; series mostly up to 114 µM; activity change, negative = inhibition: at the top concentration
# How it was run: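 MLSMR compounds (23 nl, pin-transferred) preincubated 10 min at room temperature with a 500nM (2x) first reagent, then RGS4 at 900nM (2x) plus Transcreener GDP mix added; fluorescence polarization (620/688 nm) read before and after 90 min at 30 °C.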
# On the % scale 0 is the no-effect control and ±100 the full control effect; potency means the concentration at half of the fitted maximal effect; tags describe the fitted curve by direction and shape.
SMILES,Potency,"activity change, negative = inhibition"
C[C@H]1COC2=C1C(=O)C(=O)c1c2ccc2c1CCCC2(C)C,"inconclusive: 56.2 µM [inhibitor, partial curve, poor fit]",–
C[N+](C)(C)CC1CCCc2ccccc2C1=O (stereo not given),"inconclusive: 89.1 µM [inhibitor, partial curve, poor fit]",–
NNc1n[nH]c(=S)n1N,"inconclusive: 70.8 µM [inhibitor, single point]",–
CCN(CC)C(=O)c1c(C)[nH]c(=S)c(C#N)c1-c1ccco1,"inconclusive: 35.5 µM [inhibitor, partial curve, poor fit]",–
Cc1ccc2c(c1)=C/C(=C\c1c(O)[nH]c(=O)[nH]c1=O)C(=O)N=2,"inconclusive: 50.1 µM [inhibitor, partial curve, poor fit]",–
COc1ccc(C=C2C(=O)NC(=S)NC2=O)cc1OC,"inconclusive: 20 µM [inhibitor, full curve, poor fit]",–
CC1=NNC(=O)C1C(c1ccc(F)cc1)C(C#N)C#N (stereo not given),"inconclusive: 56.2 µM [inhibitor, partial curve, poor fit]",–
COC(=O)C1=C(c2cc3ccccc3o2)C[C@@H]2CC[C@H]1N2C(=O)N1CCOCC1,–,inactive: 10.8%
COc1ccc2c3c1O[C@H]1C(=O)CC[C@@]4(O)C(C2)N(CC2CC2)CCC314 (stereo not given in full),"inconclusive: 0.168 µM [inhibitor, full curve, poor fit]",–
COc1ccc(CN2Cc3cnnn3-c3ccccc3C2C#N)cc1 (stereo not given),"inconclusive: 44.7 µM [inhibitor, partial curve, poor fit]",–
COC1CC(C)C(OC)c2cc(O)cc(c2O)NC(=O)C(C)=CC=CC(C)C(OC(N)=O)C(C)=CC(C)C1OC (stereo not given),"inconclusive: 50.1 µM [inhibitor, partial curve, poor fit]",–
COc1ccc(N2C(=O)NC(=O)/C(=C\c3ccc([N+](=O)[O-])s3)C2=O)cc1,"inconclusive: 56.2 µM [inhibitor, partial curve, poor fit]",–
COC(=O)C1=C(c2c(C)noc2C)C[C@@H]2CC[C@H]1N2C(=O)N1CCc2cc(OC)c(OC)cc2C1,"inconclusive: 89.1 µM [inhibitor, single point]",–
N#CC1=C(N)Oc2n[nH]c(-c3cccs3)c2C1c1ccco1 (stereo not given),"inconclusive: 70.8 µM [inhibitor, single point]",–
CN(C)[C@@H]1C(=O)C(C(N)=O)=C(O)[C@@]2(O)C(=O)C3=C(O)c4c(O)cccc4[C@@](C)(O)C3[C@H](O)C12 (stereo not given in full),"inconclusive: 50.1 µM [inhibitor, partial curve, poor fit] and inconclusive: 70.8 µM [inhibitor, single point]",–
O=C1CC(=O)N(c2cccc(F)c2)C(=O)N1,"inconclusive: 39.8 µM [inhibitor, partial curve, poor fit]",–
CCc1ccc(CN2CCCC(C(=O)c3sccc3C)C2)o1 (stereo not given),–,inactive: -12.7%
C[C@]12CCC(=O)C=C1CC[C@@H]1[C@@H]2CC[C@]2(C)C(=O)CC[C@@H]12,"inconclusive: 0.006 µM [inhibitor, full curve, poor fit]",–

SMILES,Potency,"activity change, negative = inhibition"
S=c1[nH]nc(-c2ccco2)n1Cc1ccccc1,"inconclusive: 70.8 µM [inhibitor, single point]",–
CN(C)CCNC(=O)c1cccn(Cc2cccc(C(F)(F)F)c2)c1=O,"inconclusive: 79.4 µM [inhibitor, partial curve, poor fit]",–
COc1ccccc1N1C(=O)NC(=O)/C(=C\c2cnn(-c3ccccc3)c2)C1=O,"inconclusive: 79.4 µM [inhibitor, partial curve, poor fit]",–
NC1CCc2cc(O)c(O)cc2C1 (stereo not given),inactive,–
Cc1ccc(N2C(=O)NC(=O)/C(=C/c3cnc(-c4ccccc4)nc3)C2=O)cc1C,"inconclusive: 79.4 µM [inhibitor, partial curve, poor fit]",–
O=C1NC(=O)N(CCC2=CCCCC2)C(=O)/C1=C\c1cccs1,"inconclusive: 44.7 µM [inhibitor, partial curve, poor fit]",–
CCCCN1C(=O)NC(=O)/C(=C/c2cnc(SC)nc2)C1=O,"inconclusive: 28.2 µM [inhibitor, full curve, poor fit]",–
COC[C@H]1OC(=O)c2coc3c2[C@@]1(C)C1=C(C3=O)C2CCC(=O)[C@@]2(C)C[C@H]1OC(C)=O (stereo not given in full),"inconclusive: 4.23 µM [inhibitor, partial curve, poor fit] and inconclusive: 37.7 µM [inhibitor, single point]",–
CC(C)C[C@H]1C(=O)N2CCC[C@H]2[C@]2(O)O[C@](NC(=O)[C@@H]3C=C4c5cccc6[nH]cc(c56)C[C@H]4N(C)C3)(C(C)C)C(=O)N12,"inconclusive: 56.2 µM [inhibitor, partial curve, poor fit]",–
C[C@H](NC(=O)[C@@H](N)Cc1ccc(O)cc1)C(=O)NCC(=O)N(C)[C@@H](Cc1ccccc1)C(=O)NCCO,"inconclusive: 0.006 µM [inhibitor, full curve, poor fit]",–
C[C@@H]1O[C@H](C[N+](C)(C)C)CS1,"inconclusive: 37.7 µM [inhibitor, single point]",–
COc1ccccc1/C=C1\C(=O)NC(=S)N(c2ccccc2)C1=O,"inconclusive: 39.8 µM [inhibitor, partial curve, poor fit]",–
CC(C)Oc1cccnc1N(C)C1CCN(Cc2ccccc2)CC1,"inconclusive: 1.68 µM [inhibitor, full curve]",–
CCOC(=O)[C@]1(C#N)[C@@H]2C=CC(C(C)=O)=CN2[C@@H](C(N)=O)[C@@H]1c1ccsc1,–,inactive: -31.4%
COc1ccc(C(CC(=O)N2CCC3(CC2)OCCO3)NS(=O)(=O)c2ccc(OC)cc2)cc1 (stereo not given),–,inactive: -15.4%
COc1ccc(/C=C2\SC(=O)N(CCn3cnnn3)C2=O)cc1,"inconclusive: 100 µM [inhibitor, single point]",–
NCC1(CC(=O)O)CCCCC1,"inconclusive: 8.43 µM [inhibitor, partial curve, poor fit]",–
